According to ChEMBL document CHEMBL4888484, “Replenishing the malaria drug discovery pipeline: Screening and hit evaluation of the MMV Hit Generation Library 1 (HGL1) against asexual blood stage Plasmodium falciparum ,using a nano luciferase reporter read-out” (2022):
The whole screen tested about 150,000 compounds, of which about 540 (0.36%) showed an effect of 50% or more. The list shows a part of the results.

These compounds were tested on Plasmodium falciparum (assay: Primary screen in NF54 nanoGlo assay, in single point, at 2uM, 72h; a lower Z score goes with more inhibition). Conditions: timepoint 72 hour.
Type: functional, Erythrocyte

SMILES	% Inhibition	Z score
CN(C)c1ccc(CNC(=O)C2CCN(c3cnc(N4CCCC4)nc3)CC2)cc1	-18%	2.04
O=C(C1COCCO1)N1CCCC(O)C1CCc1ccccc1 (configuration not stated)	-9%	1.3
CN1N=C(C(=O)Nc2ccc(N(C)C)nc2)CCC1=O	-5%	0.44
CCc1n[nH]c(C(=O)NC[C@@H]2COc3ccccc3C2)c1C	-7%	1.12
O=C(NC1CCCC1)N1CCN(c2cccnc2)C(=O)C1	16%	-1.98
CC1(C)OCCC1NC(=O)[C@H]1CC1(C)C (some centres not stated)	-9%	1.26
O=C1CN(Cc2csc([C@@H]3CCCO3)n2)Cc2ccccc2N1	0%	-0.04
Cc1c(NC(=O)Cn2cnnn2)cccc1OC1CCCC1	2%	-0.32
Cc1ccc(C)c(S(=O)(=O)N2CCCN(Cc3cn4cc(Cl)ccc4n3)CC2)c1	-9%	1.38
CN(CCN(C)C1CC1)C(=O)c1ccc(C(F)(F)F)[nH]1	0%	0.04
CCc1ncnc(O[C@H]2CCN(C(=O)c3c[nH]c(=O)[nH]3)C2)c1F	-5%	0.84
CCN1CCN(C(=O)Cn2c(C)ccc(NC(=O)Nc3ccc(C)cc3)c2=O)CC1	-7%	1.19
Cc1ccc(Cn2cc(-c3noc(C(=O)Nc4ccc(F)c(F)c4)n3)nn2)cc1	-11%	2.14
CC(C)(C)c1cc(CN2CC(=O)NC[C@H]2c2ccccc2)no1	-10%	1.76
Cc1cccc(CN2CCn3c(n[nH]c3=O)C2=O)c1	-3%	0.3
COc1ccc(CN2C[C@H](C(=O)O)[C@@H](c3cccnc3)C2)c(F)c1	-17%	3.44
Cn1cc(CN2CCCCCC2CC(O)c2ccco2)cn1 (configuration not stated)	5%	-0.43
Cc1cc(NC(=O)N(C)CCN2C[C@@H](C)O[C@@H](C)C2)ccn1	4%	-0.6
c1cncc(-c2noc(-c3cc(-c4cccs4)[nH]n3)n2)c1	7%	-0.83
CC(C)(C(=O)Nc1nnc[nH]1)C(F)F	-2%	0.24
COc1cccc(C(=O)N2CCC3(CC2)OCC(C(=O)NCC2CCCO2)N3C(=O)c2ccc(F)cc2)c1 (configuration not stated)	-6%	0.99
O=C1CN(c2ccc(OC(F)F)nn2)CCCN1	-5%	0.68

SMILES	% Inhibition	Z score
CCC(=O)N1CC(C(=O)NCc2ccccn2)C(c2cccc(OC)c2)C1 (configuration not stated)	-14%	1.53
COCCN(Cc1ccsc1)C(=O)Nc1cc2c(cc1C)OCCO2	4%	-0.75
O=C(CC1=CCCCC1)N(Cc1ccccn1)c1ccncc1	-8%	1.33
NC(=O)c1ccc(N[C@@H](C(=O)N2CCCC2)c2ccccc2)cc1	-8%	1.15
C[C@H]1CN(Cc2cnc(NCc3ccccc3)nc2)CC[C@]1(O)C1CC1	-3%	0.43
O=C(c1cccc(O)c1)N1CCC(OCc2ccccc2F)CC1	34%	-4.57
COc1cc(C(=O)N(Cc2ccccc2)S(=O)(=O)c2cccs2)ccc1OC(F)F	10%	-1.29
O=C(c1ccc(C(F)(F)F)cc1)N1CCN=C1N1CCCCC1	-6%	0.56
CC(C(=O)N(C)C)S(=O)(=O)N1CCNC(=O)C1Cc1nc2ccccc2o1 (configuration not stated)	31%	-3.5
CC(C)Oc1cccc(C(=O)[C@H]2CCCN(C3CCN(Cc4ccccn4)CC3)C2)c1	-18%	1.71
N#Cc1cccnc1N1CCC[C@H](c2cc3ccccc3[nH]2)C1	-10%	0.93
CC(CC(=O)N1CC2CCC1C(C(=O)O)C2)C(F)(F)F (configuration not stated)	-4%	0.49
CCOCCCN1C(=O)c2c(NC(C)=O)c3cc(F)ccc3n2C[C@@]1(C)C(=O)NC1CCCC1	-8%	0.75
CS(=O)(=O)Cc1noc(CN2CCCC3(CCCCCC3)C2)n1	10%	-1.41
Cc1cc(CN(C)C[C@H]2C[C@@H](NC(=O)OC(C)(C)C)C2)no1	-2%	0.25
COc1cc([C@@H]2c3nc[nH]c3CCN2Cc2nc3ccccc3[nH]2)ccc1O	-6%	0.63
CCOC(=O)CCN(C)C(=O)[C@@H]1CCCCC(=O)N1	-20%	2.56
CC(C)CCn1c(N2CCC[C@H](C(=O)NCc3cccnc3)C2)nc2ccccc21	-1%	0.07
COc1c[nH]c(C(=O)NCc2cc(C(C)C)on2)cc1=O	2%	-0.4
CCOCCO[C@@H](C)C(=O)NCCNC(=O)Cc1ccccc1	1%	-0.09
O=C(Cc1nc(Cc2ccccc2F)n[nH]1)Nc1ccc(Cl)cc1	-11%	1.4
CC(C)(C#N)CC(=O)NC1CCC(c2ccc(F)cc2)C1 (configuration not stated)	8%	-0.79

SMILES	% Inhibition	Z score
CNC(=O)[C@H]1C[C@H](Oc2ccccc2)CN1Cc1cccn1C	-9%	1.7
COCc1nc([C@@H]2CCCCCN2S(=O)(=O)c2ccccc2)no1	-5%	0.6
C[C@@H](CCc1ccco1)Nc1nc(-c2ccn(C)n2)no1	-16%	3.14
CN(C(=O)CC[C@H](N)c1ccccc1)c1ccc(F)cc1	-4%	0.69
O=S1(=O)CC[C@H](CNc2ncnc3c2Cc2ccccc2OC3)C1	-3%	0.26
CCCc1noc(CN(C)C(=O)NCc2noc(-c3ccco3)n2)n1	-2%	0.36
CC[C@H](NC(=O)c1cc(Cn2ccc3ccccc32)[nH]n1)c1ncccc1C	-2%	0.44
Cc1noc(C)c1NC(=O)N[C@@H](C)C(C)C	-5%	0.96
COc1ccc(NC(=O)C(=O)NCCN2CCC(O)CC2)c(OC)c1	-11%	1.54
Cc1nc(C)c(C(=O)N2CCCO2)s1	8%	-1.3
Cc1nnc(CN2CCN(Cc3ccccc3)C(=O)C2(C)C)s1	-1%	0.17
O=C(CN1CCOC1=O)N[C@@H]1COCC[C@@H]1OCc1ccccc1	-3%	0.39
CC1(NC(=O)[C@H](CC(N)=O)NC(=O)Cc2cccc(F)c2)CCCC1	2%	-0.36
O=C(OCCN1CCCC1=O)c1cccc(Cl)c1	-2%	0.23
CCOC(=O)[C@H](Cc1ccccc1)NC	-2%	0.26
CCOC(=O)c1c(C)[nH]c(CCC(=O)NCc2ccc(F)cc2)c1C	2%	-0.46
CC(C)c1cc(C(=O)N2CCN(c3nnc(C(F)(F)F)s3)CC2)nc(N)n1	-6%	0.78
Cn1nc(N)c2c(C#N)c3c(nc21)CCCC3	-1%	0.17
COc1ccc(O)cc1CN1CCN(C(C)=O)[C@H]2CS(=O)(=O)C[C@H]21	-1%	0.2
O=C(NCc1nccnc1-c1ccco1)c1cscn1	13%	-1.7
CN1CCC(Cc2nc(C3(c4ccccc4)CCCC3)n(CCO)n2)CC1	-7%	0.82
COCC1(C)CCN(S(=O)(=O)c2cc(C(N)=O)n(C)c2)CC1	-3%	0.48

SMILES	% Inhibition	Z score
NC(=O)C[C@H](NCC(F)(F)F)C1CCOCC1	-5%	0.53
CCN(CC(N)=O)C(=O)[C@H]1CCCC(F)(F)C1	-9%	1.11
Cc1cncc(C(=O)N2CC[C@H](OCCCc3ccccc3)C2)c1	6%	-1.1
Cc1ncc([C@H](C)NCCCc2nc3c(s2)CCCC3)c(C)n1	-8%	1.1
Cc1cncn(CCNS(=O)(=O)Cc2cc(F)ccc2F)c1=O	-3%	0.56
c1cc(-c2ccco2)cc(-c2nccn2CCc2cnccn2)c1	-22%	1.97
O=C(c1cnn2c1OCCC2)N1CCC[C@H](Oc2ncc(F)cn2)C1	1%	-0.19
CC1=NS(=O)(=O)N(C)C=C1C(=O)Nc1ccccc1C(F)(F)F	-15%	1.67
CCOc1ccc(CCn2c3c(c(=O)[nH]c2=O)C(C(F)(F)F)(C(F)(F)F)N=C(c2ccncc2)N3)cc1OCC	5%	-0.71
OCCN(CCn1cc(Cl)cn1)Cc1ccco1	-13%	2.46
O=C(c1ccc(O)cc1)N1CCN(Cc2cccnc2)[C@@H]2CS(=O)(=O)C[C@@H]21	-14%	2.74
Cc1ccc(CN(C)C(=O)c2ccc(S(=O)(=O)N3CCOCC3)cc2)o1	-6%	0.61
O=C([C@@H](O)Cc1ccccc1)N1CCCC(Cn2cncn2)C1 (some centres not stated)	-6%	0.62
O=C(NCc1ccccc1CN1CCOCC1)Nc1nccs1	-6%	1.01
Cc1ccc(Oc2nc(N3CCC(C)CC3)nc3c2CN(C(=O)Nc2ccccc2)CC3)cc1	-9%	1.45
Cc1n[nH]c(C)c1CNc1ccc(N(C)C(=O)OC(C)(C)C)nc1	4%	-0.35
Cc1n[nH]cc1CN(C)C(=O)c1cncc(O)c1	-1%	0.13
Cc1nc2cc(NC(=O)c3ccc(=O)n(C)n3)ccc2o1	-13%	1.65
O=c1nc(NCCc2ccc(O)cc2)cn[nH]1	-5%	0.67
C[C@H]1CN(c2nnc(-c3nnc[nH]3)n2C)CCN1C(=O)OC(C)(C)C	0%	0.04
